Measured values: article PMC12345631
No constants are given. Whether binding was seen depends on the method and setting. Binding seen in cells or lysates may run through a third protein. Some entries that bind do so weakly or less than the wild type. Tags and fused reporters may be left off the sequences shown.

What was measured:
[1] = target: T1, Pbp1Δ500-503 (Flag-tagged) (S. cerevisiae) (UniProt P53297); assay: co-IP; anti-Flag (M2) on Dynabeads Protein G, 1–2 h at 4°C; lysis in 50 mM HEPES pH 7.5, 150 mM NaCl, 1 mM EDTA, NP-40; washes with 0.2% NP-40; blot for HA; cells in YPD, YPL, SD or SL medium; wild-type or mkt1∆ background; CEN.PK and S288C
T1 sequence: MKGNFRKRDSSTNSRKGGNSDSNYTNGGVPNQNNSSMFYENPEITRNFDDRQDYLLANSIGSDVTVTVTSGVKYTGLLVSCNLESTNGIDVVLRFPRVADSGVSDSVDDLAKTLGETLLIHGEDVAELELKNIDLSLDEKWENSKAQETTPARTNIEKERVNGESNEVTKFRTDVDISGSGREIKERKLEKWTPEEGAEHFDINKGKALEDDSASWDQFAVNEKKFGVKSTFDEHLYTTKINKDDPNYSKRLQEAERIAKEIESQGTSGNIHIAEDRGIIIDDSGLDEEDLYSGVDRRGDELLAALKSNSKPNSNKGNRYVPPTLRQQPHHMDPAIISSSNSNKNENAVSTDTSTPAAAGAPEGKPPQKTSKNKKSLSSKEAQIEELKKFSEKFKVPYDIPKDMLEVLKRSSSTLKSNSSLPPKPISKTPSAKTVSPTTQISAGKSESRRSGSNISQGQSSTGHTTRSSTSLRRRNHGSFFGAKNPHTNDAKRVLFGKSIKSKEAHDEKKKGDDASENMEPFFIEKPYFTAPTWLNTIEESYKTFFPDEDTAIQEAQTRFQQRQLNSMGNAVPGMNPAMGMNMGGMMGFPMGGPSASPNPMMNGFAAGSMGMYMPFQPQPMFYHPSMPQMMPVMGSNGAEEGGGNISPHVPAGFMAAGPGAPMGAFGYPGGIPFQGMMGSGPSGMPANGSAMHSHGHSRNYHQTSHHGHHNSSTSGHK

[2] = target: T2, Pbp1Δ299-570 (Flag-tagged) (S. cerevisiae) (UniProt P53297); assay: as above
T2 sequence: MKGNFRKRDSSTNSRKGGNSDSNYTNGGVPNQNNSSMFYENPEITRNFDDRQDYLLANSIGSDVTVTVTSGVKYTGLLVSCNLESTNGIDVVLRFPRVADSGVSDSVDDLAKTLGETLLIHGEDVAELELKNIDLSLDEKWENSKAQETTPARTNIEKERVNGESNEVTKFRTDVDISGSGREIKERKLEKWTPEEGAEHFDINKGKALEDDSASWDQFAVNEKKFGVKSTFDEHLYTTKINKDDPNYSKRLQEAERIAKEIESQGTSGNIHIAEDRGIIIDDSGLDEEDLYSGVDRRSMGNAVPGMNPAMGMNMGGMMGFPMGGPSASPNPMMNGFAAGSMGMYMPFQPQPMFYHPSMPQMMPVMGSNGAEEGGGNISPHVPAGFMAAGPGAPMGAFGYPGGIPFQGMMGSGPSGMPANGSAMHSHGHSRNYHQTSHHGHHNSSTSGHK

[3] = target: T3, Pbp1-Flag (S. cerevisiae) (UniProt P53297); assay: co-IP; anti-Flag co-IP as above; washed IP samples incubated with RNase If for 15 min at 37°C; cells from YPL cultures in log phase
T3 sequence: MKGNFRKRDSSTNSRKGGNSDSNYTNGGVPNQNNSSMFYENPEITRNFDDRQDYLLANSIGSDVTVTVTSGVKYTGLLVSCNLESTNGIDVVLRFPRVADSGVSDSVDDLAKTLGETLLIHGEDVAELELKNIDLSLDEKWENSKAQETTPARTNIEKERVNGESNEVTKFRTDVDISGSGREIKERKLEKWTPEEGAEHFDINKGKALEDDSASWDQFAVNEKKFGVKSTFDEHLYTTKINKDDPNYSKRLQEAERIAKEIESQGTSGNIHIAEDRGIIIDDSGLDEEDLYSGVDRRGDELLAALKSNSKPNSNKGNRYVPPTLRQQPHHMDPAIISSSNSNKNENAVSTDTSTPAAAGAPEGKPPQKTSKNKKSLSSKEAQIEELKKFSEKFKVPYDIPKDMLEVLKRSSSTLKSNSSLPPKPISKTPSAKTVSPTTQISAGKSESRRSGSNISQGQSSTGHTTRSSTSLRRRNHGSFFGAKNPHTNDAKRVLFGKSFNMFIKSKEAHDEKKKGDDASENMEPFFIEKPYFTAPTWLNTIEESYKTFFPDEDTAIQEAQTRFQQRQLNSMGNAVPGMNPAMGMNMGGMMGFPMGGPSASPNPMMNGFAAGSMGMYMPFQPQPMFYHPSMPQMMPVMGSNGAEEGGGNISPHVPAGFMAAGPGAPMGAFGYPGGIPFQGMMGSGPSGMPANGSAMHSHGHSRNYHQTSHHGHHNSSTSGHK

B1: Mkt1-HA (protein, UniProt P40850 1-830)
chain: MAIKSLESFLFERGLVGSYAIEALNNCTLGIDVNHYVSRLLTNKREQYLDAIGGFPTSLKMYLESDLKIFKDFNITPIFVFNGGLTYNQLEASGHFTAASASASISSTTTSSSGTNATTRSNTESVLLQRSRGWTQWNNLISSNQNSYIDQPIQPQEPFRHNTTIDSKAYQNDLIAYFIEHGYMYQVAPYSSWFQLAYLLNSAYIDAIYGPTDCLMLDCVDRFILGMEFPNKEFRFIDRSRVMKDLGCTHEEFIDIAMAVGNDLQPTTLPPLQIYPVPQLFDIALEMVLNTGTNFYAYQLSTTLQNDSKENIQNYQRGISALRYMPVLKDTGKVELFVQEIVVSEEDSEKNNKDGKKSNLSSPSSASSSASPATTVTKNASEKLTYEKSSTKEVRKPRDIPNDVHDFIGQMLPHEYYFYRSIGLVTGKLFDAIVTGVYPEEPPLGGGSSTSYRKLVSKSVEIFKNKEINLLTQPINRYYQIKQIKQVKWYAANEPTTLTNRMSPSMFETINHLIVKTETSDEKEFSISEFITTINGSSNMAKDFISEKVIFPNSVPIESKLNSPFNLLSTNFLRLLVLLEFFTFDFKEKLLEPTRWGEVFLKLNELNIDSKYHESVIIFLVFLKCDVLKLDEEVQPPAPSALSQATLRSYPEESLYVLLITRVLTLFQVDQKPSNYHGPIDKKTLIFRDHLSFIKENLNELFEAVLISSLTSGEFNRLSLDNFGWARKIVRYLPFKLDSPNTIMAMMWEFFLQKYLHNGNAKNDALSLVATEFNTYKSTPNLDEQFVESHRFLLEISKVMQELNAAKLIDENVFKLFTKAVEFTTTALSS
In the case of B1, the binding [1] is reported as “no binding”, the binding [2] is reported as “no binding” and the binding [3] is reported as “binds”.
